These results are taken from PubChem BioAssay AID1963576 (National Center for Advancing Translational Sciences (NCATS), 2024).

The whole screen tested about 46,000 compounds, of which about 60 (0.1%) were called active. Not shown: some 3% with an inconclusive outcome. Calls come from the whole dose curve; as a rule, active = well fitted inhibition curve with a large enough effect; inconclusive = small, poorly fitted or top-dose-only effect; inactive = no such curve, though single readings can be large or run the other way. The list shows a part of the results.

The assay is described as follows: Primary qHTS assay for Inhibitors of ovarian cancer metastasis using an organotypic tumor microenvironment (TME) model.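 For activity change, negative = inhibition: plate controls were DMSO wells for no effect and tomatine positive control wells for full effect.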 Note: nearly all actives have a fitted effect of over 65% in size. To be noted: SKOV3ip1-GFP adhesion/invasion on 3D omental model, fluorescence; series mostly up to 45.8 µM; activity change, negative = inhibition: at the top concentration. The essentials:
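A 3D layer of primary human omental fibroblasts, mesothelial cells, fibronectin and collagen I, grown 48 hr, received SKOV3ip1-GFP cells in serum-free medium plus compounds at 0.36-46 umol/L. After 2 hr RT and 16 hr 37 C, fixed adherent GFP cells were counted; normalized to DMSO and tomatine.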
Background: In qHTS, concentration-response curves come from the screen itself.
In the case of `CCc1ccc(-n2nc(C)c3c(C)cc(=O)n(CC(=O)Nc4cc(Cl)ccc4OC)c32)cc1`, the “activity change, negative = inhibition” value is inactive: -9.81%. In the case of `CCOc1ccc(OCC)c(NC(=O)c2cnn(-c3ccc(F)cc3)c2-n2cccc2)c1`, the outcome was inactive. For `CCCN1CCN(c2nnc(-n3cccc3C(=O)Nc3ccccc3C(F)(F)F)s2)CC1`, the “activity change, negative = inhibition” value is inactive: -7.8%. Same read-out and setting: for `COc1cc(NC(=O)NCCc2c(C)nn(C)c2C)cc(OC)c1OC` the value was inactive: -10%. On to `O=c1c2sc3ccccc3c2n(Cc2cccc(Cl)c2)c(=O)n1Cc1ccccc1`, for which the compound was called inactive. Take `Cc1cccc(C(=O)NCCc2nc3ccccc3n2CCC(C)C)c1`: the “activity change, negative = inhibition” value is inactive: 1.11%. The same measure, in the same setting: for `CN[C@@H]1[C@@H](O)[C@@H](O[C@@H]2[C@@H](O)[C@H](O[C@H]3O[C@H](CN)[C@@H](O)[C@H](O)[C@@H]3O)[C@@H](N)C[C@@H]2NC(=O)[C@@H](O)CN)OC[C@]1(C)O` the value was inactive: 0.661%; for `COc1ccc(NCc2cc3ccc(OC)cc3n(CC(=O)Nc3ccc(C)c(C)c3)c2=O)cc1`, inactive: -15.7%. The same measure, in the same setting: the same measure for `Cc1cccc(N2C(=O)CSC23C(=O)N(C)c2ccccc23)c1` (configuration not stated): inactive: 0.728%. On the same count and under the same terms, for `Cc1cccc(OCC(=O)Nc2c(C(=O)Nc3ccc(F)cc3)oc3ccccc23)c1` the value was inactive: -3.56%; for `COc1ccc(S(=O)(=O)Nc2cccc(-c3ccc(N4CCCCCC4)nn3)c2)cc1OC`, inactive: 1.41%. Take `CC(=O)Nc1ccc(S(=O)(=O)NCCc2csc3nc(-c4ccc(Cl)cc4)nn23)cc1`: the result was inactive. In the case of `O=C(CSc1ccnc(=O)[nH]1)NCc1ccc(F)cc1`, the “activity change, negative = inhibition” value was inactive: -2.15%.

In the case of `COc1cccc(C(c2sc3nc(-c4ccco4)nn3c2O)N2CCC(C)CC2)c1` (configuration not stated), the “activity change, negative = inhibition” value was inactive: 15.2%.

On to `CCOC(=O)C1CCN(C(=O)Cn2nc(C)n3c(cc4c(OC)cccc43)c2=O)CC1`, for which the compound was called inactive. Turning to `CCC1CN(C(=O)NCc2ccc(F)cc2)c2cc(C)ccc2O1` (configuration not stated), the “activity change, negative = inhibition” value is inactive: 10.4%. With `CCc1ccc(NC(=O)C2CCCN(S(=O)(=O)c3ccc4[nH]c(=O)ccc4c3)C2)cc1` (configuration not stated), the “activity change, negative = inhibition” value is inactive: -27.6%. Same read-out and setting: the same measure for `COC(=O)c1sccc1S(=O)(=O)N1CCN(c2cccc(C)c2)C(C)C1` (configuration not stated): inactive: 4.08%. The same measure, in the same setting: for `COc1ccc(OC)c(CCNC(=O)c2ccc3c(c2)N(Cc2ccccc2)CCS3)c1` the value was inactive: 19.5%.

`CN1C(=O)c2ccccc2Sc2ccc(NC(=O)Cc3ccc(Cl)cc3)cc21`: the “activity change, negative = inhibition” value is inactive: -37%. On to `Cc1cccc(N(C)S(=O)(=O)c2nnc(NC(=O)C(C)Oc3ccccc3)s2)c1` (configuration not stated), for which the call was inactive. On the same count and under the same terms, the same measure for `COc1ccc(C)cc1NC(=O)CSc1nc(=O)n(Cc2ccco2)c2c1CCC2`: “inactive”. In the case of `Cc1ccc(-n2cc(-c3ccccc3)c3c(N4CCC(C)CC4)ncnc32)cc1Cl`, the “activity change, negative = inhibition” value is inactive: -12%. Same read-out and setting: for `CCCCc1ccc(NC(=O)Cn2cnc3c(oc4ccccc43)c2=O)cc1` the value was inactive: -8.67%; for `O=C(NCc1ccc(Cl)cc1)c1ccc2c(c1)nnn2C1CCCC1`, inactive: -7.45%. For the compound `Cc1ccc(CCNC(=O)C2CC(=O)N(CCc3ccc(C)cc3)C2)cc1` (configuration not stated), the call was inactive.

As to `CCOC(=O)c1cccc(NC(=O)C2COc3ccc(OC)cc3C2)c1` (configuration not stated), the “activity change, negative = inhibition” value is inactive: 2.25%.

With `N=c1ccn2c(n1)O[C@H]1[C@@H](O)[C@@H](CO)O[C@H]12`, the “activity change, negative = inhibition” value was inactive: 16.6%. On the same count and under the same terms, for `O=C(NCc1ccccc1)C1CCN(c2ncnc3c2nc2n3CCCCC2)CC1` the value was inactive: -5.19%.

`O=C(Nc1ccccc1OCc1cc(=O)n2ccccc2n1)Nc1ccccc1C(F)(F)F`: the call was inactive. Take `CCOC(=O)c1cnc2c(C)cc(C)cc2c1NCCN1CCOCC1`: the “activity change, negative = inhibition” value was inactive: 3.9%. On the same count and under the same terms, the same measure for `Cc1nc2nc(NCc3ccccc3Cl)[nH]n2c(=O)c1Cc1ccccc1`: inactive: 3.49%. For the compound `Cc1ccc(C)c(OCc2nc3ccccc3n2C)c1`, the “activity change, negative = inhibition” value is inactive: -9.1%. Still for that read-out and setting: for `Cc1ccccc1NC(=O)CSc1nc2c(oc3ccccc32)c(=O)n1Cc1ccco1` the value was inactive: -23%; for `CCCSC1=NC2(CCN(C(=O)NC3CCCCC3)CC2)N=C1c1ccc(C)cc1`, inactive: 5.72%. In the case of `CCOC(=O)c1c(C)[nH]c(C)c1S(=O)(=O)NCC(=O)Nc1cccc(Cl)c1`, the outcome was inactive. Consider `CCOc1ccc(CNC(=O)c2ccc(NC(=O)N3CCCCc4ccccc43)cc2)cc1`, for which the “activity change, negative = inhibition” value was inactive: 4.14%. On the same count and under the same terms, for `Cc1c(NC(=O)Cc2ccc(Cl)cc2)cccc1-c1nc2cccnc2s1` the value was inactive: 0.621%; for `CCOC(=O)c1c(S(=O)(=O)N2CCCC(C(=O)Nc3cccc(CC)c3)C2)c(C)n(CC)c1C` (configuration not stated), inactive: -1.59%. As for `CSc1ncc(Cl)c(C(=O)Nc2c(C(=O)c3ccc(Cl)cc3)oc3ccccc23)n1`, the “activity change, negative = inhibition” value was inactive: 0.314%. Same read-out and setting: for `Cc1ccc(-n2ncc(C(=O)N3CCN(c4ccccc4F)CC3)c2C2CCN(C(=O)OC(C)(C)C)CC2)cc1C` the value was inactive: 0.176%.

With `Cc1cccc(OC(=O)CSc2nnc(-c3cccs3)o2)c1C`, the “activity change, negative = inhibition” value is inactive: -2.81%. Same read-out and setting: for `O=C(NCCO[N+](=O)[O-])c1cccnc1` the value was inactive: 4.37%; for `Cc1cc(C)cc(NC(=O)NCc2c(-n3cccc3)sc3c2CCCC3)c1`, inactive: -2.12%; for `Cc1ccccc1Nc1c(-c2c[nH]c3ccccc23)nc2ccc(Cl)cn12`, inactive: -10.5%.

Turning to `O=C(CSc1nc(Nc2ccccc2)c2ccccc2n1)c1ccc(Cl)cc1`, the compound was classed as inactive. With `Cc1cccc(CNC(=O)Cn2nc(C)c3nn(-c4ccc(Cl)cc4)c(C)c3c2=O)c1`, the “activity change, negative = inhibition” value was inactive: -2.96%. The same measure, in the same setting: the same measure for `Cc1c(CNC2CCCCCC2)c(C(=O)O)c(C)n1Cc1cccc(Cl)c1`: inactive: 1.45%; for `Cc1ccc(NS(=O)(=O)c2ccc3c(c2)n(C)c(=O)n3C)c(C)c1`: inactive: -6.71%; for `CC(=O)N1CCN(c2csc3ccc(Cl)cc3c2=O)CC1`: inactive: 0.163%. On the same count and under the same terms, the same measure for `CCCCOC(=O)c1ccc(NC(=O)c2ccc3c(c2)CCN3S(C)(=O)=O)cc1`: inactive: -4%. Still for that read-out and setting: the same measure for `Cc1cccc(C(c2sc3nc(-c4ccco4)nn3c2O)N2CCOCC2)c1` (configuration not stated): inactive: -0.471%; for `Cc1cccc(N2CCN(C(=O)CCS(=O)(=O)c3ccc4c(c3)CC(=O)N4C)CC2C)c1` (configuration not stated): inactive: 8.2%. `Clc1cccc(CNCCCSc2nnnn2-c2ccccc2)c1`: the “activity change, negative = inhibition” value was inactive: -27.5%. The same measure, in the same setting: the same measure for `COC(=O)c1scc(-c2ccc(C)cc2)c1S(=O)(=O)Nc1cc(C)c(Cl)cc1OC`: inactive: 4.81%; for `COc1ccc(NC(=O)Cn2cc(C(=O)c3ccc(C)c(C)c3)c(=O)c3cc(OC)ccc32)cc1`: inactive: 4.31%; for `CCOC(=O)c1c(-c2ccccc2)oc2ccc(OCc3ccccc3Br)cc12`: inactive: 1.57%. Consider `COc1ccc(-c2noc(N3CCC(C(=O)N4CCN(c5cccc(OC)c5)CC4)CC3)n2)cc1`, for which the compound was called inactive. `CCOc1ccccc1NC(=O)Cn1c(=O)oc2ccccc21`: the “activity change, negative = inhibition” value was inactive: -3.66%.

Turning to `Cc1ccc(CSC2=NC(C)(C)Nc3ccccc32)c(C)c1`, the “activity change, negative = inhibition” value was inactive: 0.693%.

For `COc1ccc(-c2csc3ncnc(Nc4ccccc4)c23)cc1`, the “activity change, negative = inhibition” value is inactive: -7.37%. Same read-out and setting: the same measure for `O=C(Cn1cc(C(=O)c2ccco2)c2ccccc21)Nc1ccccc1C(F)(F)F`: inactive: 0.26%.
